{"source": "PubChem BioAssay AID1347165", "about": "(National Center for Advancing Translational Sciences (NCATS), 2019)", "note": "Where “and” joins values, the source holds several entries; their conditions need not be identical. Equal entries are not always repeated. In all, about 220,000 compounds went through this assay and about 5,700 (2.6%) were called active. The shares of active, inactive and inconclusive entries below differ from those in the screen. The call rests on the fitted dose curve; in most records, active means well fitted inhibition curve with a large enough effect; inconclusive means small, poorly fitted or top-dose-only effect; inactive means no such curve, though single readings can be large or run the other way. Potencies beside an inconclusive call are fits to weak or partial responses and may not hold up. Potency means the concentration at half of the fitted maximal effect; tags describe the fitted curve by direction and shape."}
{"biological_target": "Lysine-specific demethylase 5B (Homo sapiens) (UniProt Q9UGL1)", "sequence (Q9UGL1 whole entry, looked up)": "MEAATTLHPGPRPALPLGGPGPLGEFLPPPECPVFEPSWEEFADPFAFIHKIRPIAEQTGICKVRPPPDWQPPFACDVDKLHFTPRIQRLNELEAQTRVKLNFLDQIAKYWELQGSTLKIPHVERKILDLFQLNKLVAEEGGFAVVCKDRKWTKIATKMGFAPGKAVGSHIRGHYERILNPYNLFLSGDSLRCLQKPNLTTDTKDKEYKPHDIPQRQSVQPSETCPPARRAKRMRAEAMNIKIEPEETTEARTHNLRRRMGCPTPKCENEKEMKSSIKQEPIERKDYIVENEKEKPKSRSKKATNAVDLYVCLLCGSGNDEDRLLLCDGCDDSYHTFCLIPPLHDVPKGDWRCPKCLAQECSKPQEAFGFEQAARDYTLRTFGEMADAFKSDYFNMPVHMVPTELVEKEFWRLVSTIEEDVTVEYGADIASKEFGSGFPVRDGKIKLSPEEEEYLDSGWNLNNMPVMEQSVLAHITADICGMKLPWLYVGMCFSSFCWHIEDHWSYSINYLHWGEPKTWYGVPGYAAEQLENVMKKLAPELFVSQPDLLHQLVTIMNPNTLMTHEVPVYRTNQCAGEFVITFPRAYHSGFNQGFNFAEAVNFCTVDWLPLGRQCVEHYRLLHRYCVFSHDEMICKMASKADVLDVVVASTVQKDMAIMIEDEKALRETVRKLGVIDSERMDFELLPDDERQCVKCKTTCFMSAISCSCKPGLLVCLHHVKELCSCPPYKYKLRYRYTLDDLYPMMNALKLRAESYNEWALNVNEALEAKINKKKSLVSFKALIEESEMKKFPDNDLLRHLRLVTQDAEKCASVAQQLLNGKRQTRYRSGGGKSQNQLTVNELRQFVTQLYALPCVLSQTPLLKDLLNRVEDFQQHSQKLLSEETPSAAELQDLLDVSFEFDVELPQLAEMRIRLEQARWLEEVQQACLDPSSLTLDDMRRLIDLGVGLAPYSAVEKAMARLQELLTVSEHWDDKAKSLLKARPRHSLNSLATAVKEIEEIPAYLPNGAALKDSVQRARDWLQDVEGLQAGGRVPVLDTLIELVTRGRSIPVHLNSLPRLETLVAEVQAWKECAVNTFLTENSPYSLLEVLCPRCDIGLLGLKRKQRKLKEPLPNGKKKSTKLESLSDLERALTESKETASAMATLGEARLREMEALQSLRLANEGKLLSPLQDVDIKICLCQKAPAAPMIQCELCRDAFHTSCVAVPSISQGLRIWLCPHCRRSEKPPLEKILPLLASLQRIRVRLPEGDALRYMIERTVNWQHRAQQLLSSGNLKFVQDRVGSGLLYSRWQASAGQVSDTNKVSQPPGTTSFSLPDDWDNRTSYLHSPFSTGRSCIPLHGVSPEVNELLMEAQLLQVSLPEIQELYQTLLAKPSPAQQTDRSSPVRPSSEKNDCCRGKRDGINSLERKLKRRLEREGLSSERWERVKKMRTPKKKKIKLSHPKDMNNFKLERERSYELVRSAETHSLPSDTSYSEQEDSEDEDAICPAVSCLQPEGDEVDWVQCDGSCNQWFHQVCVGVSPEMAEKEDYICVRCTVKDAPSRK", "assay": "Primary screen for KDM5B Histone Demethylases FDH-coupled qHTS; further: nearly all actives have a fitted effect of over 70% in size; on activity change, negative = inhibition: 0% is about no effect", "settings": "FDH-coupled NADH fluorescence (FDH is formaldehyde dehydrogenase); activity change, negative = inhibition: at 57.7 µM (top of the series) unless noted", "summary_of_the_method": "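Inhibition is measured as reduced NADH fluorescence generation from FDH coupling to formaldehyde release. Truncated KDM5BΔAP at 200 nM final acts on H3K4me3 peptide (12.5 µM in substrate mix) in pH 7.5 HEPES buffer with Tween-20, 30 min, room temperature.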"}
{"smiles": "CN(C)c1cccc(C(=O)NC2CCN(c3cc(-c4ccc(Cl)cc4)[nH]n3)CC2)c1", "Potency": "active: 31.6 µM"}
{"smiles": "Cc1ccc(C(=O)O)cc1NC1(c2ccccc2)C(=O)c2ccccc2C1=O", "Potency": "inconclusive: 17.8 µM [inhibitor, partial curve, poor fit]"}
{"smiles": "Cc1cccc(-c2nc3c(cnn3-c3ccccc3)c(=O)n2-c2ccc(Br)cc2)c1", "Potency": "inconclusive: 39.8 µM [inhibitor, single point]"}
{"smiles": "COc1ccc2oc(-c3ccc(C)c(NC(=O)c4ccc(-c5ccccc5[N+](=O)[O-])o4)c3)nc2c1", "activity change, negative = inhibition": "inconclusive: -33% [inhibitor]"}
{"smiles": "O=c1c(N2CCN(Cc3ccccc3)CC2)csc2ccc(F)cc12", "Potency": "inconclusive: 28.2 µM [inhibitor, partial curve, poor fit]"}
{"smiles": "Cc1nn(-c2ccccn2)c(C)c1[C@@H]1C=C[C@@H](NC(=O)NCc2ccccc2)C1", "Potency": "inconclusive: 31.6 µM [inhibitor, single point]"}
{"smiles": "Cc1ccc(-c2nc(CNC(=O)[C@@H](N)[C@@H](C)O)[nH]c2-c2ccccn2)cc1", "activity change, negative = inhibition": "inactive: -28.4%"}
{"smiles": "Cc1cccc(C(=O)N[C@@H]2CN(c3ncccn3)C[C@H]2CO)n1", "Potency": "inconclusive: 25.1 µM [inhibitor, partial curve]"}
{"smiles": "CCn1ccc2c(OCC(=O)NCc3ccccc3)cccc2c1=O", "Potency": "inconclusive: 25.1 µM [inhibitor, single point]"}
{"smiles": "CCCN1CCN(c2cc3c(cc2F)c(=O)c(S(=O)(=O)c2ccc(CC)cc2)cn3CC)CC1", "Potency": "inconclusive: 31.6 µM [inhibitor, partial curve, poor fit]"}
{"smiles": "CCc1ccc(-c2csc(NC(=O)c3nn(C)c(=O)c4ccccc34)n2)cc1", "activity change, negative = inhibition": "inactive: -1.98%"}
{"smiles": "O=S(=O)(c1cccc(F)c1)N1CC[C@@H]2COCCN(Cc3ccccc3)[C@@H]2C1", "Potency": "inconclusive: 20 µM [inhibitor, partial curve, poor fit]"}
{"smiles": "Cc1cccc(CCNC(=O)c2ccc(CSCc3cccc(Cl)c3)o2)c1", "Potency": "inconclusive: 1.26 µM [inhibitor, partial curve, poor fit]"}
{"smiles": "O=C(O)CCCCN1C(=O)/C(=C\\c2ccc(OCc3ccccc3)c(OCc3ccccc3)c2)SC1=S", "Potency": "inconclusive: 14.1 µM [inhibitor, partial curve, poor fit]"}
{"smiles": "CCOc1ccccc1NC(=O)C1=C(C)Nc2ncnn2C1c1ccc(NC(C)=O)cc1", "note": "(configuration not stated)", "Potency": "inconclusive: 10 µM [inhibitor, partial curve, poor fit]"}
{"smiles": "Cc1ccc(NC(=O)CC2Nc3cc(C)c(C)cc3NC2=O)c(C)c1", "note": "(configuration not stated)", "Potency": "inconclusive: 28.2 µM [inhibitor, partial curve, poor fit]"}
{"smiles": "Cc1ccc(Cc2nc3ccccc3nc2SCC(=O)N2CCN(c3ccccc3)CC2)cc1", "Potency": "inconclusive: 31.6 µM [inhibitor, single point]"}
{"smiles": "COc1ccc(S(=O)(=O)c2nnn(-c3ccccc3F)c2C)cc1", "activity change, negative = inhibition": "inconclusive: -37.9% [inhibitor]"}
{"smiles": "Cc1nn(CCCC(=O)NCc2ccc(OC(C)C)cc2)c(=O)c2c1sc1ccccc12", "Potency": "inconclusive: 14.1 µM [inhibitor, partial curve, poor fit]"}
{"smiles": "C=CCn1c(SCc2coc(-c3ccc(F)cc3)n2)nnc1C1CCS(=O)(=O)C1", "note": "(configuration not stated)", "activity change, negative = inhibition": "inactive: 0.827%"}
{"smiles": "CCCN1CCN(c2cc(C(=O)O)c3cc(NC(=O)c4ccccc4C)ccc3n2)CC1", "Potency": "inconclusive: 22.4 µM [inhibitor, partial curve, poor fit]"}
{"smiles": "N#CC1=C2SCN(C3CCCCC3)CN2C(=O)CC1c1c(F)cccc1Cl", "note": "(configuration not stated)", "Potency": "inconclusive: 2.82 µM [inhibitor, full curve, poor fit]"}
{"smiles": "O=C(CSc1nnc(C2CC2)n1C1CC1)Nc1ccc(Cl)c(S(=O)(=O)N2CCCCC2)c1", "activity change, negative = inhibition": "inactive: 6.08%"}
{"smiles": "O=C(Nc1ccc(Br)cc1)c1cc2ccc(O)cc2oc1=O", "Potency": "inconclusive: 1.78 µM [inhibitor, partial curve, poor fit]"}
{"smiles": "CNC(=O)[C@@H]1C[C@@H](O)CN1C1CCN(C(=O)CC2CCCCC2)CC1", "activity change, negative = inhibition": "inactive: 11.1%"}
{"smiles": "CCC(=O)N1Cc2ccccc2CC2(CCCCN2Cc2ccncc2)C1", "note": "(configuration not stated)", "activity change, negative = inhibition": "inactive: 39.5% [at 115 µM]"}
{"smiles": "Cc1ccc(CNC(=O)c2cc3c(s2)-c2cc(C)sc2CC3)cc1", "Potency": "inconclusive: 25.1 µM [inhibitor, partial curve, poor fit]"}
{"smiles": "Cc1cccc(C)c1-c1nc(C(=O)N2CCC(C#N)CC2)n2ccccc12", "Potency": "active: 100 µM"}
{"smiles": "COc1cc(C(=O)Oc2ccc3c(c2)CCC3)cc(Cl)c1OCC(C)C", "activity change, negative = inhibition": "inactive: -9.52%"}
{"smiles": "Cn1nc(C2CCCN2)c2c(C(=O)NCC(F)(F)F)cc(C3CC3)nc21", "note": "(configuration not stated)", "Potency": "active: 79.4 µM"}
{"smiles": "Cc1cc(NC(=O)COC(=O)c2oc3ccccc3c2C)no1", "Potency": "inconclusive: 11.2 µM [inhibitor, partial curve, poor fit]"}
{"smiles": "N#Cc1ccccc1CN1CCCCC12Cc1ccccc1CNC2=O", "note": "(configuration not stated)", "Potency": "inconclusive: 63.1 µM [inhibitor, partial curve, poor fit]"}
{"smiles": "O=c1[nH]c(=O)n(Cc2ccccc2)c2ncn(Cc3ccco3)c12", "Potency": "inconclusive: 22.4 µM [inhibitor, single point]"}
{"smiles": "Cc1onc(-c2c(F)cccc2Cl)c1C(=O)ONC(=O)c1ccco1", "Potency": "inconclusive: 22.4 µM [inhibitor, single point]"}
{"smiles": "COc1ccc(F)cc1-c1ccc(C=O)cc1", "Potency": "active: 50.1 µM"}
{"smiles": "CCCCNC(=S)N(C)/N=C/c1ccc(N(CC)CC)cc1", "Potency": "inconclusive: 28.2 µM [inhibitor, single point]"}
{"smiles": "COc1cccc(Nc2nc(NCC(C)C)nc3c2cnn3-c2ccccc2)c1", "Potency": "inconclusive: 31.6 µM [inhibitor, partial curve, poor fit]"}
{"smiles": "COc1ccc(OC)c(CN2CCNc3cnc(Nc4cccnc4)cc3C2)c1", "Potency": "active: 25.1 µM"}
{"smiles": "COCCN1CCn2c(nc3cc(NC(=O)Cn4nc(C)c5ccccc5c4=O)ccc32)C1", "Potency": "inconclusive: 22.4 µM [inhibitor, partial curve, poor fit]"}
{"smiles": "Cc1ccc2nc(-c3ccc(C)o3)cc(C(=O)O)c2c1", "activity change, negative = inhibition": "inactive: -1130%"}
{"smiles": "CC(C)CNC(=O)C(NC(=O)c1ccccc1)C1CCN(C(=O)c2ccc(F)cc2)CC1", "note": "(configuration not stated)", "activity change, negative = inhibition": "inactive: 21.7%"}
{"smiles": "COc1ccc(CCN(Cc2ccncc2)C(=O)CC2COCCN2)cc1", "note": "(configuration not stated)", "Potency": "inconclusive: 25.1 µM [inhibitor, single point]"}
{"smiles": "CCC(C)NC(=O)CCc1c(C)nc2c(c(C)nn2-c2ccc(C)cc2)c1C", "note": "(configuration not stated)", "activity change, negative = inhibition": "inactive: -87%"}
{"smiles": "Cc1ccc2[nH]cc(C(c3ccccc3)c3ccc(C)s3)c2c1", "note": "(configuration not stated)", "Potency": "inconclusive: 14.1 µM [inhibitor, partial curve, poor fit]"}
{"smiles": "CCOC(=O)c1ccc(-c2ccc(/C=C(\\C#N)c3nc4ccc(C)cc4[nH]3)o2)cc1", "Potency": "inconclusive: 5.62 µM [inhibitor, partial curve, poor fit]"}
{"smiles": "COCC(C)NC(=O)c1cc2c(=O)n3cccc(C)c3nc2s1", "note": "(configuration not stated)", "Potency": "inconclusive: 28.2 µM [inhibitor, partial curve, poor fit]"}
{"smiles": "CCc1ccc(C(=O)Nc2sc(C)c(C)c2C#N)cc1", "Potency": "inconclusive: 22.4 µM [inhibitor, single point]"}
{"smiles": "COc1ccc(-c2onc(C)c2C)cc1S(=O)(=O)NCc1ccc(C)o1", "Potency": "inconclusive: 5.01 µM [inhibitor, partial curve, poor fit]"}
{"smiles": "COc1ccc(-n2nc(C(=O)NCC(=O)N3CCN(Cc4ccccc4)CC3)c3ccccc3c2=O)cc1", "Potency": "inconclusive: 39.8 µM [inhibitor, single point]"}
{"smiles": "COc1ccc(CCCc2nnc(SCC(=O)Nc3cccc(C)c3)o2)cc1", "Potency": "inconclusive: 17.8 µM [inhibitor, partial curve, poor fit]"}
{"smiles": "Cc1nn(CCC(=O)NCc2ccc(Cl)cc2)c(=O)c2nn(-c3ccccc3)c(C)c12", "Potency": "inconclusive: 1.78 µM [inhibitor, partial curve, poor fit]"}
{"smiles": "COc1ccc(CCn2c3c(c(=O)[nH]c2=O)C(NC(=O)c2ccccc2F)(C(F)(F)F)C(=O)N3)cc1OC", "note": "(configuration not stated)", "Potency": "inconclusive: 31.6 µM [inhibitor, single point]"}
{"smiles": "CN(Cc1ccco1)C(=O)Cc1cccn1-c1ccc(F)cc1", "Potency": "inconclusive: 22.4 µM [inhibitor, partial curve, poor fit]"}
{"smiles": "O=C(Nc1ccccc1[N+](=O)[O-])C(F)(F)C(F)(F)C(F)(F)F", "Potency": "inconclusive: 39.8 µM [inhibitor, single point]"}
{"smiles": "CCn1cc(CCC(=O)NCc2ccc(C)cc2)c2ccccc21", "Potency": "inconclusive: 28.2 µM [inhibitor, partial curve, poor fit]"}
{"smiles": "COc1cc(OC)cc(C(=O)Nc2ccc(S(=O)(=O)Nc3cnc4ccccc4n3)cc2)c1", "Potency": "inconclusive: 17.8 µM [inhibitor, partial curve, poor fit] and inconclusive: 17.8 µM [inhibitor, single point]"}
{"smiles": "CCC(C)Nc1ncnc2c1CN(C1CCCNCC1)C(=O)CN2C", "note": "(configuration not stated)", "Potency": "inconclusive: 56.2 µM [inhibitor, partial curve, poor fit]"}
{"smiles": "COc1ccc(-c2cn[nH]c2-c2ccc(OCc3ccccc3)cc2O)cc1OC", "Potency": "inconclusive: 31.6 µM [inhibitor, partial curve, poor fit]"}
{"smiles": "CCN1CCCC1CNC(=O)CC(C)(C)C", "note": "(configuration not stated)", "activity change, negative = inhibition": "inactive: -9.14%"}
{"smiles": "COc1ccc([C@@H]2CN(c3ncccc3C#N)C[C@H]2NC(C)=O)cc1", "Potency": "active: 28.2 µM"}
{"smiles": "COc1ccc(C(=O)N[C@@H]2CN(Cc3cccnc3)C[C@H]2CN(C)C)cc1OC", "Potency": "inconclusive: 31.6 µM [inhibitor, partial curve, poor fit]"}
{"smiles": "O=C(/C=C/c1ccco1)N1CCCC(C(F)(F)F)C1", "note": "(configuration not stated)", "activity change, negative = inhibition": "inactive: -28.5%"}
